{"source": "the supplement of paper PMC8728848", "binders": {"B1": {"name": "DCIR (Homo sapiens), Q9UMR7 (protein)", "chain": "MTSEITYAEVRFKNEFKSSGINTASSAASKERTAPHKSNTGFPKLLCASLLIFFLLLAISFFIAFVIFFQKYSQLLEKKTTKELVHTTLECVKKNMPVEETAWSCCPKNWKSFSSNCYFISTESASWQDSEKDCARMEAHLLVINTQEEQDFIFQNLQEESAYFVGLSDPEGQRHWQWVDQTPYNESSTFWHPREPSDPNERCVVLNFRKSPKRWGWNDVNCLGPQRSVCEMMKIHL"}}, "experiment_in_all_cases": "glycan array binding signal (z-score within array); higher = stronger binding", "settings_in_all_cases": "glycan notation: IUPAC condensed, linker removed", "key": {"[1]": {"target": "GlcNAc(b1-3)Gal(b1-4)GlcNAc", "method_in_brief": "(§1)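 The binding signal is a Z-score computed within each array. Data were drawn from 3228 arrays in the Consortium for Functional Glycomics database, restricted to those with a known protein sequence. Scores were averaged over arrays of the same protein sequence at different concentrations or buffers, and over linkers, and negative values can be taken as non-binding.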"}, "[2]": {"target": "GlcNAc(b1-3)Gal(b1-4)GlcNAc(b1-3)Gal(b1-4)GlcNAc", "method_in_brief": "as §1"}, "GlcNAc(b1-3)GalNAc": {"target": "GlcNAc(b1-3)GalNAc", "method_in_brief": "as §1"}, "[3]": {"target": "GlcNAc(b1-3)[GlcNAc(b1-6)]Gal(b1-4)GlcNAc", "method_in_brief": "as §1"}, "[4]": {"target": "GlcNAc(b1-3)[GlcNAc(b1-6)]GalNAc", "method_in_brief": "as §1"}, "[5]": {"target": "GlcNAc(b1-3)[GlcNAc(b1-6)]GlcNAc(b1-4)GlcNAc", "method_in_brief": "as §1"}, "[6]": {"target": "GlcNAc(b1-4)Gal(b1-4)GlcNAc", "method_in_brief": "as §1"}, "[7]": {"target": "GlcNAc(b1-4)GlcNAc(b1-4)GlcNAc", "method_in_brief": "as §1"}, "[8]": {"target": "GlcNAc(b1-4)GlcNAc(b1-4)GlcNAc(b1-4)GlcNAc(b1-4)GlcNAc", "method_in_brief": "as §1"}, "[9]": {"target": "GlcNAc(b1-4)GlcNAc(b1-4)GlcNAc(b1-4)GlcNAc(b1-4)GlcNAc(b1-4)GlcNAc", "method_in_brief": "as §1"}, "[10]": {"target": "GlcNAc(b1-4)[GlcNAc(b1-6)]GalNAc", "method_in_brief": "as §1"}, "[11]": {"target": "GlcNAc(b1-6)Gal(b1-4)GlcNAc", "method_in_brief": "as §1"}, "GlcNAc(b1-6)GalNAc": {"target": "GlcNAc(b1-6)GalNAc", "method_in_brief": "as §1"}, "Kdn(a2-3)Gal(b1-3)GlcNAc": {"target": "Kdn(a2-3)Gal(b1-3)GlcNAc", "method_in_brief": "as §1"}, "Kdn(a2-3)Gal(b1-4)GlcNAc": {"target": "Kdn(a2-3)Gal(b1-4)GlcNAc", "method_in_brief": "as §1"}, "[12]": {"target": "Man(a1-2)Man(a1-2)Man(a1-3)Man", "method_in_brief": "as §1"}, "[13]": {"target": "Man(a1-2)Man(a1-2)Man(a1-6)[Man(a1-3)]Man", "method_in_brief": "as §1"}, "Man(a1-2)Man(a1-3)Man": {"target": "Man(a1-2)Man(a1-3)Man", "method_in_brief": "as §1"}, "[14]": {"target": "Man(a1-2)Man(a1-3)[Man(a1-2)Man(a1-6)]Man", "method_in_brief": "as §1"}, "[15]": {"target": "Man(a1-2)Man(a1-3)[Man(a1-2)Man(a1-6)]Man(a1-6)[Man(a1-2)Man(a1-2)Man(a1-3)]Man(b1-4)GlcNAc(b1-4)GlcNAc", "method_in_brief": "as §1"}, "[16]": {"target": "Man(a1-2)Man(a1-3)[Man(a1-6)]Man(a1-6)[Man(a1-2)Man(a1-3)]Man(b1-4)GlcNAc(b1-4)GlcNAc", "method_in_brief": "as §1"}, "[17]": {"target": "Man(a1-2)Man(a1-6)[Man(a1-3)]Man(a1-6)[Man(a1-2)Man(a1-2)Man(a1-3)]Man(b1-4)GlcNAc(b1-4)GlcNAc", "method_in_brief": "as §1"}, "Man(a1-3)[Man(a1-6)]Man": {"target": "Man(a1-3)[Man(a1-6)]Man", "method_in_brief": "as §1"}, "[18]": {"target": "Man(a1-3)[Man(a1-6)]Man(a1-6)[Man(a1-2)Man(a1-3)]Man(b1-4)GlcNAc(b1-4)GlcNAc", "method_in_brief": "as §1"}, "[19]": {"target": "Man(a1-3)[Man(a1-6)]Man(a1-6)[Man(a1-3)]Man(b1-4)GlcNAc(b1-4)GlcNAc", "method_in_brief": "as §1"}, "[20]": {"target": "Man(a1-3)[Man(a1-6)]Man(b1-4)GlcNAc(b1-4)GlcNAc", "method_in_brief": "as §1"}, "Man(b1-4)GlcNAc": {"target": "Man(b1-4)GlcNAc", "method_in_brief": "as §1"}, "Neu5Ac(a2-3)Gal": {"target": "Neu5Ac(a2-3)Gal", "method_in_brief": "as §1"}, "[21]": {"target": "Neu5Ac(a2-3)Gal(b1-3)GalNAc", "method_in_brief": "as §1"}, "[22]": {"target": "Neu5Ac(a2-3)Gal(b1-3)GalNAc(b1-3)Gal(a1-4)Gal(b1-4)Glc", "method_in_brief": "as §1"}, "[23]": {"target": "Neu5Ac(a2-3)Gal(b1-3)GalNAc(b1-3)Gal(b1-4)GlcNAc", "method_in_brief": "as §1"}, "[24]": {"target": "Neu5Ac(a2-3)Gal(b1-3)GalNAc(b1-4)[Neu5Ac(a2-3)]Gal(b1-4)Glc", "method_in_brief": "as §1"}, "[25]": {"target": "Neu5Ac(a2-3)Gal(b1-3)GalNAc6S", "method_in_brief": "as §1"}, "[26]": {"target": "Neu5Ac(a2-3)Gal(b1-3)GlcNAc", "method_in_brief": "as §1"}, "[27]": {"target": "Neu5Ac(a2-3)Gal(b1-3)GlcNAc6S", "method_in_brief": "as §1"}, "[28]": {"target": "Neu5Ac(a2-3)Gal(b1-3)[Fuc(a1-4)]GlcNAc", "method_in_brief": "as §1"}, "[29]": {"target": "Neu5Ac(a2-3)Gal(b1-3)[Fuc(a1-4)]GlcNAc(b1-3)Gal(b1-4)[Fuc(a1-3)]GlcNAc", "method_in_brief": "as §1"}, "[30]": {"target": "Neu5Ac(a2-3)Gal(b1-3)[Neu5Ac(a2-3)Gal(b1-4)]GlcNAc", "method_in_brief": "as §1"}, "[31]": {"target": "Neu5Ac(a2-3)Gal(b1-3)[Neu5Ac(a2-6)]GalNAc", "method_in_brief": "as §1"}, "Neu5Ac(a2-3)Gal(b1-4)Glc": {"target": "Neu5Ac(a2-3)Gal(b1-4)Glc", "method_in_brief": "as §1"}, "[32]": {"target": "Neu5Ac(a2-3)Gal(b1-4)GlcNAc", "method_in_brief": "as §1"}}, "note": "Some of the results follow."}
{"binder": "B1", "values": [{"measurement": "glycan array binding signal (z-score)", "setting": "[1]", "value": -0.314}, {"measurement": "glycan array binding signal (z-score)", "setting": "[2]", "value": -0.419}, {"measurement": "glycan array binding signal (z-score)", "setting": "GlcNAc(b1-3)GalNAc", "value": -0.401}, {"measurement": "glycan array binding signal (z-score)", "setting": "[3]", "value": -0.549}, {"measurement": "glycan array binding signal (z-score)", "setting": "[4]", "value": -0.252}, {"measurement": "glycan array binding signal (z-score)", "setting": "[5]", "value": -0.254}, {"measurement": "glycan array binding signal (z-score)", "setting": "[6]", "value": -0.253}, {"measurement": "glycan array binding signal (z-score)", "setting": "[7]", "value": -0.211}, {"measurement": "glycan array binding signal (z-score)", "setting": "[8]", "value": 0.043}, {"measurement": "glycan array binding signal (z-score)", "setting": "[9]", "value": -0.209}, {"measurement": "glycan array binding signal (z-score)", "setting": "[10]", "value": -0.063}, {"measurement": "glycan array binding signal (z-score)", "setting": "[11]", "value": -0.376}, {"measurement": "glycan array binding signal (z-score)", "setting": "GlcNAc(b1-6)GalNAc", "value": -0.354}, {"measurement": "glycan array binding signal (z-score)", "setting": "Kdn(a2-3)Gal(b1-3)GlcNAc", "value": -0.081}, {"measurement": "glycan array binding signal (z-score)", "setting": "Kdn(a2-3)Gal(b1-4)GlcNAc", "value": -0.247}, {"measurement": "glycan array binding signal (z-score)", "setting": "[12]", "value": -0.113}, {"measurement": "glycan array binding signal (z-score)", "setting": "[13]", "value": -0.108}, {"measurement": "glycan array binding signal (z-score)", "setting": "Man(a1-2)Man(a1-3)Man", "value": -0.007}, {"measurement": "glycan array binding signal (z-score)", "setting": "[14]", "value": 0.098}, {"measurement": "glycan array binding signal (z-score)", "setting": "[15]", "value": -0.585}, {"measurement": "glycan array binding signal (z-score)", "setting": "[16]", "value": -0.535}, {"measurement": "glycan array binding signal (z-score)", "setting": "[17]", "value": -0.335}, {"measurement": "glycan array binding signal (z-score)", "setting": "Man(a1-3)[Man(a1-6)]Man", "value": -0.333}, {"measurement": "glycan array binding signal (z-score)", "setting": "[18]", "value": -0.349}, {"measurement": "glycan array binding signal (z-score)", "setting": "[19]", "value": -0.242}, {"measurement": "glycan array binding signal (z-score)", "setting": "[20]", "value": -0.14}, {"measurement": "glycan array binding signal (z-score)", "setting": "Man(b1-4)GlcNAc", "value": -0.179}, {"measurement": "glycan array binding signal (z-score)", "setting": "Neu5Ac(a2-3)Gal", "value": 0.446}, {"measurement": "glycan array binding signal (z-score)", "setting": "[21]", "value": 0.431}, {"measurement": "glycan array binding signal (z-score)", "setting": "[22]", "value": -0.45}, {"measurement": "glycan array binding signal (z-score)", "setting": "[23]", "value": -0.161}, {"measurement": "glycan array binding signal (z-score)", "setting": "[24]", "value": -0.298}, {"measurement": "glycan array binding signal (z-score)", "setting": "[25]", "value": 1.02}, {"measurement": "glycan array binding signal (z-score)", "setting": "[26]", "value": -0.077}, {"measurement": "glycan array binding signal (z-score)", "setting": "[27]", "value": 0.3}, {"measurement": "glycan array binding signal (z-score)", "setting": "[28]", "value": -0.452}, {"measurement": "glycan array binding signal (z-score)", "setting": "[29]", "value": -0.136}, {"measurement": "glycan array binding signal (z-score)", "setting": "[30]", "value": -0.382}, {"measurement": "glycan array binding signal (z-score)", "setting": "[31]", "value": -0.425}, {"measurement": "glycan array binding signal (z-score)", "setting": "Neu5Ac(a2-3)Gal(b1-4)Glc", "value": -0.483}, {"measurement": "glycan array binding signal (z-score)", "setting": "[32]", "value": -0.202}]}
